{"source": "paper PMC4336329", "about": "(PLoS ONE, 2015)", "note": "The whole screen tested about 310,000 compounds, of which about 2,200 (0.71%) showed an effect of 50% or more. The effect is printed as a negative number. Some of the results follow."}
{"biological_target": "human ether-à-go-go-related gene (hERG) potassium channel (human, UniProt Q12809)", "sequence (Q12809 whole entry, looked up)": "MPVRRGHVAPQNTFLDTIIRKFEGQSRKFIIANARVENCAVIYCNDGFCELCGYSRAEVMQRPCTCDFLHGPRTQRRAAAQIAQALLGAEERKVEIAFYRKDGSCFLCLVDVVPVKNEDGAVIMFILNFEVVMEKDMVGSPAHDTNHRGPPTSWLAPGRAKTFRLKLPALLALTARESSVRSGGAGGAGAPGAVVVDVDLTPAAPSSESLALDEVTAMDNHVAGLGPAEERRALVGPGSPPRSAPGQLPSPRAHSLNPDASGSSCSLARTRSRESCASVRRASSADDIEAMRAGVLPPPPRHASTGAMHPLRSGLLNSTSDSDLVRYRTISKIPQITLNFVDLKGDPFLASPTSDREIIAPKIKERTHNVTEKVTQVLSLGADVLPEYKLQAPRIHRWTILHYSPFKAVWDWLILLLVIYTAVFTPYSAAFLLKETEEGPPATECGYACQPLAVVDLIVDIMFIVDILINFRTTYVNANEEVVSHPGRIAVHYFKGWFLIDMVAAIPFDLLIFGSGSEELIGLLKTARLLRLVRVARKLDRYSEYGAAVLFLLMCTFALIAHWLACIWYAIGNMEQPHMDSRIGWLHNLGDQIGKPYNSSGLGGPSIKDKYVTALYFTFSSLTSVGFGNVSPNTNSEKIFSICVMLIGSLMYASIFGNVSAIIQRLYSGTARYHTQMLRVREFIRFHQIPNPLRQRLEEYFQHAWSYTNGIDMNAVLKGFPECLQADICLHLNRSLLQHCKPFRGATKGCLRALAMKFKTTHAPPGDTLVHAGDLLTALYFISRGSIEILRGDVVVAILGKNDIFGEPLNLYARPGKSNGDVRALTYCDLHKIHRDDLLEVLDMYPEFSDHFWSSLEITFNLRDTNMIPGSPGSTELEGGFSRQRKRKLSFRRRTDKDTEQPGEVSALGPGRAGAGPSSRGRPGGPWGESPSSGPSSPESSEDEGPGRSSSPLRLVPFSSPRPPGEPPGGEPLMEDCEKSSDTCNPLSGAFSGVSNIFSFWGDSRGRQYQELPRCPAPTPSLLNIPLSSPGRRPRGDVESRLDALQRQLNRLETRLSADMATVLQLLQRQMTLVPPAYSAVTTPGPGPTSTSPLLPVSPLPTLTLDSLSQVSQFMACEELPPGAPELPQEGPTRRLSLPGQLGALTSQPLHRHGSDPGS", "assay": "primary screen, population patch clamp on CHO cells stably expressing hERG", "units": {"hERG current change (%, negative = inhibition) at 1uM": "%"}}
{"compound": "O=S(=O)(/N=C(/c1ccccc1)N1CCOCC1)c1ccc(F)cc1", "hERG current change (%, negative = inhibition) at 1uM": 7.22}
{"compound": "Cc1oc(/N=C/c2ccc(Cl)cc2)c(C#N)c1C", "hERG current change (%, negative = inhibition) at 1uM": 8.04}
{"compound": "CCN(CC)S(=O)(=O)c1ccc(NC(=O)c2ccc(CN3CCOCC3)cc2)cc1", "hERG current change (%, negative = inhibition) at 1uM": 8.92}
{"compound": "CC(=O)n1cc(C2C(=O)CC(C)(C)CC2=O)c2ccccc21", "hERG current change (%, negative = inhibition) at 1uM": 4.97}
{"compound": "CCOC(=O)c1c(C)[nH]c2c1cc(O)c1ccccc12", "hERG current change (%, negative = inhibition) at 1uM": 10.4}
{"compound": "N#CCCN1CCN(S(=O)(=O)c2ccc3c(c2)OCCCO3)CC1.O=C(O)C(=O)O", "hERG current change (%, negative = inhibition) at 1uM": 20}
{"compound": "Cc1ccc(CSc2nnc(Nc3ccc(C)cc3)s2)cc1", "hERG current change (%, negative = inhibition) at 1uM": 17.6}
{"compound": "COc1ccc(OC)c(NC2c3ccccc3C(=O)N2c2cccnc2)c1", "note": "(centres unmarked)", "hERG current change (%, negative = inhibition) at 1uM": 5.31}
{"compound": "O=S(=O)(NC1CC(NS(=O)(=O)OCC(Cl)(Cl)Cl)C2CCCCC12)OCC(Cl)(Cl)Cl", "note": "(centres unmarked)", "hERG current change (%, negative = inhibition) at 1uM": 4.56}
{"compound": "CCC(C)NC(=O)CNC(=S)N(Cc1ccccc1F)C1CCCCC1", "note": "(centres unmarked)", "hERG current change (%, negative = inhibition) at 1uM": 11.1}
{"compound": "Cn1cccc1Cc1nnc(SCC(=O)N2CCc3ccccc32)n1CCc1ccccc1", "hERG current change (%, negative = inhibition) at 1uM": 7.66}
{"compound": "CC(=O)C1=C(C)NC(SCC(=O)c2ccc(Cl)cc2)=C(C#N)C1c1ccco1", "note": "(centres unmarked)", "hERG current change (%, negative = inhibition) at 1uM": 15.1}
{"compound": "Cn1nnnc1SCc1csc(Nc2ccccc2)n1", "hERG current change (%, negative = inhibition) at 1uM": 1.48}
{"compound": "Cc1cccc(OCC(=O)NCCNC(=O)c2ccco2)c1", "hERG current change (%, negative = inhibition) at 1uM": -1.5}
{"compound": "Cc1nn(C(=O)c2nn(C)cc2Cl)c(C)c1Br", "hERG current change (%, negative = inhibition) at 1uM": 2.59}
{"compound": "COc1ccc(Br)cc1CN1CCN(C(=O)c2cccc(OC)c2OC)CC1.O=C(O)C(=O)O", "hERG current change (%, negative = inhibition) at 1uM": 4.85}
{"compound": "O=C(NCC(=O)N(Cc1ccc(F)cc1)C(C(=O)NC1CCCC1)c1ccco1)c1ccco1", "note": "(centres unmarked)", "hERG current change (%, negative = inhibition) at 1uM": -5.26}
{"compound": "COc1cccc(CNC(=O)C2CCN(S(=O)(=O)c3ccc(Br)s3)CC2)c1", "hERG current change (%, negative = inhibition) at 1uM": -10.1}
{"compound": "O=C(/C=C/c1cccc(F)c1)OCC(=O)N1CCCc2ccccc21", "hERG current change (%, negative = inhibition) at 1uM": 8.28}
{"compound": "Cc1nnc(SCC(=O)NNC(=O)c2ccco2)s1", "hERG current change (%, negative = inhibition) at 1uM": -1.69}
{"compound": "Cc1ccc(C(=O)NCC(=O)NCC(=O)OCC(=O)c2ccc(Br)cc2)cc1", "hERG current change (%, negative = inhibition) at 1uM": 10.5}
{"compound": "CCn1c(CNC(=O)c2cccc(C)c2)nnc1SCC(=O)Nc1cccc(OC)c1", "hERG current change (%, negative = inhibition) at 1uM": -4.04}
{"compound": "CC(C#CCN1CCCCC1)OCCOCc1ccccc1.Cl", "note": "(centres unmarked)", "hERG current change (%, negative = inhibition) at 1uM": 7.95}
{"compound": "COC(=O)c1c(C(=O)OC)c2n(c1C)Cc1ccccc1C2", "hERG current change (%, negative = inhibition) at 1uM": -5.49}
{"compound": "NS(=O)(=O)c1cccc(C(=O)NC2CCSc3ccccc32)c1", "note": "(centres unmarked)", "hERG current change (%, negative = inhibition) at 1uM": 6.64}
{"compound": "C/C(=N\\NC(=S)NC(C)C)c1ccc2c(c1)OCCO2", "hERG current change (%, negative = inhibition) at 1uM": 11.4}
{"compound": "O=C(N1CCCCCC1)N1CCN(S(=O)(=O)N2CCCCC2)CC1", "hERG current change (%, negative = inhibition) at 1uM": -1.87}
{"compound": "COc1ccc(-n2cnnc2SCC(=O)NCc2cccs2)cc1", "hERG current change (%, negative = inhibition) at 1uM": 14.6}
{"compound": "Cc1ccsc1C(=O)NCC(=O)OCc1ccccc1", "hERG current change (%, negative = inhibition) at 1uM": 4.3}
{"compound": "Cn1cc(CN2CCN(CCc3ccccc3)C(CCO)C2)cn1", "note": "(centres unmarked)", "hERG current change (%, negative = inhibition) at 1uM": 7.67}
{"compound": "CSc1cccc(NC(=O)C(C)C)c1", "hERG current change (%, negative = inhibition) at 1uM": 11.9}
{"compound": "Cl.OC(c1cc(C(F)(F)F)nc2c(C(F)(F)F)cccc12)C1CCCCN1", "note": "(centres unmarked)", "hERG current change (%, negative = inhibition) at 1uM": 14}
{"compound": "O=C(NC1CCN(Cc2ccccc2)CC1)c1cn(-c2ccccc2)nc1-c1cccnc1", "hERG current change (%, negative = inhibition) at 1uM": -15.7}
{"compound": "CC(Nc1ccc2c(c1)OCCO2)C(=O)N1c2ccccc2CC1C", "note": "(centres unmarked)", "hERG current change (%, negative = inhibition) at 1uM": 5.23}
{"compound": "COC(=O)c1cc(NS(=O)(=O)c2ccc(C(C)C)cc2)ccc1N1CCOCC1", "hERG current change (%, negative = inhibition) at 1uM": 8.75}
{"compound": "O=C(NNC(=O)c1sc2ccccc2c1Cl)Nc1ccc(Cl)cc1", "hERG current change (%, negative = inhibition) at 1uM": 2.48}
{"compound": "Nn1c(SCC(=O)Nc2ccccc2F)nnc1-c1cccs1", "hERG current change (%, negative = inhibition) at 1uM": -37.4}
{"compound": "O=C(c1ccc([N+](=O)[O-])cc1)N1CCN(C(=O)c2ccco2)CC1", "hERG current change (%, negative = inhibition) at 1uM": -8.23}
{"compound": "CCCc1c(C)c2ccc(OCC(C)=O)cc2oc1=O", "hERG current change (%, negative = inhibition) at 1uM": -1.77}
{"compound": "CC(Sc1nnc(-c2ccc(OC(F)F)cc2)n1N)C(=O)NCC1CCCO1", "note": "(centres unmarked)", "hERG current change (%, negative = inhibition) at 1uM": 7.86}
{"compound": "O=c1[nH]c(-c2ccccn2)nc2ccccc12", "hERG current change (%, negative = inhibition) at 1uM": 5.94}
{"compound": "CCOC(=O)c1sc(NC(=O)CSc2nnc(C)s2)c(C(=O)OCC)c1C", "hERG current change (%, negative = inhibition) at 1uM": -5.96}
{"compound": "O=C(Nc1ccc(S(=O)(=O)Nc2ncccn2)cc1)c1cccc(Br)c1", "hERG current change (%, negative = inhibition) at 1uM": 11.8}
{"compound": "COc1ccc([N+](=O)[O-])cc1NCc1ccccc1C", "hERG current change (%, negative = inhibition) at 1uM": -5.52}
{"compound": "Cc1ccc(NC(=O)CSc2nc3ccccc3c3nc4ccccc4n23)cc1", "hERG current change (%, negative = inhibition) at 1uM": 6.56}
{"compound": "CN(C)c1ccc(-c2noc(C3CCN(S(=O)(=O)c4cccc(Cl)c4)CC3)n2)cc1", "hERG current change (%, negative = inhibition) at 1uM": 14.5}
{"compound": "CCCc1nnc(NC(=O)CCC(=O)N2CCN(Cc3cc(F)ccc3OC)CC2)s1", "hERG current change (%, negative = inhibition) at 1uM": 16.7}
{"compound": "COc1cc([C@@H]2c3cc4c(cc3[C@@H](OC)[C@H]3COC(=O)[C@H]23)OCO4)cc(OC)c1O", "hERG current change (%, negative = inhibition) at 1uM": 12.2}
{"compound": "O=C(Nc1ccc(F)cc1F)c1cccnc1Oc1cccc(C(F)(F)F)c1", "hERG current change (%, negative = inhibition) at 1uM": 6.26}
{"compound": "CCN(CC)CC(C)OC(=O)COc1ccc(OC)cc1.Cl", "note": "(centres unmarked)", "hERG current change (%, negative = inhibition) at 1uM": 10.2}
{"compound": "CCOc1ccc(-c2c(C)n(-c3ccc(OCC)cc3)c3[n+]2CCCCC3)cc1.[O-][Cl+3]([O-])([O-])[O-]", "hERG current change (%, negative = inhibition) at 1uM": -50.8}
{"compound": "CCC(C)(NC=O)C(=O)Nc1c(C)cccc1C", "note": "(centres unmarked)", "hERG current change (%, negative = inhibition) at 1uM": 11.5}
{"compound": "CCSc1nnc(NC(=O)C2Cc3ccccc3CN2S(=O)(=O)CC)s1", "note": "(centres unmarked)", "hERG current change (%, negative = inhibition) at 1uM": 11.3}
{"compound": "O=C1/C(=C/c2ccc(O)cc2)SC(=S)N1Cc1cccnc1", "hERG current change (%, negative = inhibition) at 1uM": 15.1}
{"compound": "O=C(c1cccn2c(=O)c3ccccc3nc12)N1CCN(c2ccccn2)CC1", "hERG current change (%, negative = inhibition) at 1uM": -33.3}
{"compound": "O=C(NC1CCCCC1)C1CN(S(=O)(=O)c2ccccc2)CCN1S(=O)(=O)c1ccccc1", "note": "(centres unmarked)", "hERG current change (%, negative = inhibition) at 1uM": -2.07}
